We go through 1 substance from paper PMC12866851.

Amino acid sequences for entries named in this document (tags omitted).
UniProt Q15388: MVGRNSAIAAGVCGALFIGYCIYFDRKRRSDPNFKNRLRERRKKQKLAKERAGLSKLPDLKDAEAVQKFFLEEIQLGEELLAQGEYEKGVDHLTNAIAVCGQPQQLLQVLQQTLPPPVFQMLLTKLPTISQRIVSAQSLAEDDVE

The target of the experiment is T1, Long‐chain acyl‐CoA synthetase 5 (ACSL5) (human (endogenous in HCT116)) (UniProt Q9ULC5).
T1 sequence: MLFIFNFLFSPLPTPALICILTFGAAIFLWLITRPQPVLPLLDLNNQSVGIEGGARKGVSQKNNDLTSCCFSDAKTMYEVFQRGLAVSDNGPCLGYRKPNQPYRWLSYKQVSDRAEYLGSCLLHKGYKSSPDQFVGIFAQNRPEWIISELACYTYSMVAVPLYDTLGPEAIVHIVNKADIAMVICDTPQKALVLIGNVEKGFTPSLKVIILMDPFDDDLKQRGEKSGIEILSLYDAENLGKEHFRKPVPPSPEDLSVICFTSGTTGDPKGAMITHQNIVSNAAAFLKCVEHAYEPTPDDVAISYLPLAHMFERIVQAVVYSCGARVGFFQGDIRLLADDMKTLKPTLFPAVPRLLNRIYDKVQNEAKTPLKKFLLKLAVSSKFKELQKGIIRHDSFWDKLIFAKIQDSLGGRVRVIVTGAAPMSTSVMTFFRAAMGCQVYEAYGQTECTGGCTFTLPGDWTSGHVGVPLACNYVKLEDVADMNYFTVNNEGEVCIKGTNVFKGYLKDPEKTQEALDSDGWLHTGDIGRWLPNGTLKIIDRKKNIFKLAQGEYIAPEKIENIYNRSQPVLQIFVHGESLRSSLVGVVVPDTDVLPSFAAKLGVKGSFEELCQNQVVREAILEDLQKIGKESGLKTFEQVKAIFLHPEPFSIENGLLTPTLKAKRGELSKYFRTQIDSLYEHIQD
In words: co-IP; endogenous proteins of HCT116 lysate; IP lysis buffer (50 mM Tris-HCl pH 7.4, 150 mM NaCl, 1 mM EDTA, 5% glycerol, 0.4% Triton X-100, 0.4% NP-40); primary antibody overnight at 4 °C, Protein A/G beads 2 h, five washes; Western blot; in Figure 4I cells cultured with or without glutamine for 48 h. In general terms: Immunoblotting shows a protein as a band on a membrane.

These are yes or no findings as the source states them, for the method shown. In cells and extracts the contact can be indirect. Some entries that bind do so weakly or less than the wild type.

With “TOM20 (from UniProt Q15388 1-145) (receptor)”, the binding result is “binds”.
